# Experimental data: ChEMBL document CHEMBL4888484, “Replenishing the malaria drug discovery pipeline: Screening and hit evaluation of the MMV Hit Generation Library 1 (HGL1) against asexual blood stage Plasmodium falciparum ,using a nano luciferase reporter read-out” (2022)
# In all, about 150,000 compounds went through this assay and about 540 (0.36%) showed an effect of 50% or more. The list shows a part of the results.
# System: Plasmodium falciparum
# Assay: Primary screen in NF54 nanoGlo assay, in single point, at 2uM, 72h; a lower Z score goes with more inhibition
# Assay type: functional, Erythrocyte
# Conditions: timepoint 72 hour
SMILES,% Inhibition [%],Z score
COc1ccccc1N1CCN(C(=O)Cn2ncn3nc(-c4cc(C)ccc4C)cc3c2=O)CC1,33,-3.67
CCO[C@@H](C)c1nccn1Cc1nc(-c2ccccc2)oc1C,5,-0.61
O=C(CCN1CCc2sccc2C1)NC1CCCCC1,3,-0.46
COc1cc(C)ccc1OCCN1CCN(C)[C@]2(CCC(=O)N(C)CC2)C1,-8,1.31
COc1ccc(-c2cc(C(=O)N3CCN(c4ccccc4Cl)CC3)c(C)n2-c2ccc(F)cc2F)cc1,-7,0.66
Cc1ccc(F)c(N2CCCC(NC(=O)C3COCCO3)C2)c1 (stereo not drawn),14,-1.52
CCCn1cc(S(=O)(=O)Nc2cc(C)ccc2C)c2cccnc21,-2,0.41
Cc1nc2nc(-c3cccs3)nn2c(C)c1CC(=O)N1CCCCC1,-8,0.94
COC[C@H]1CN(Cc2noc(C3CC3)n2)CCO1,2,-0.31
CC(=O)N1CCC[C@H](c2nnc(N3CCC4(CCCCC4)CC3)n2C)[C@@H]1C,0,0.03
CCN(CC)C(=O)c1sc(C)nc1C,-2,0.18
CC(C)N1CCC(NC(=O)c2ccc(-c3cnn4ccccc34)cc2)CC1,-18,2.01
CCCCn1nnnc1CNCCn1cc(C)cn1,-9,1.34
CC(C)[C@H]1CN(c2ccncc2F)C[C@@H]1N(C)C,-18,1.7
COc1ccc2[nH]c3c(c2c1)CCN(C(=O)c1cc(F)cc(F)c1)[C@H]3c1ccc(-c2ccccc2C(F)(F)F)o1,-13,1.31
O=C(NCc1nc(-c2ccco2)n[nH]1)[C@@H]1CCCN1c1ncnc2ccccc12,-1,0.11
COCCNC(=O)[C@@H]1COC2(CCN(C(=O)c3ccc(F)cc3F)CC2)N1C(=O)c1ccc(F)cc1,0,-0.02
CC(C)(N)c1ccccc1Br,-7,0.85
CC(C)(CNC(=O)CC(=O)NCC(F)(F)F)c1cccs1,-6,0.82
O=C(O)CO[C@H]1COCC[C@@H]1NC1CCN(c2ccc(Cl)cc2)CC1,-11,2.14
CC1(C)CCc2onc(CN3CCOc4ccccc4[C@@H]3CO)c2C1,-14,1.73

SMILES,% Inhibition [%],Z score
COc1cc(Cc2ncnn2C(C)(C)C)cc(OC)c1OC,2,-0.32
CCN1CCN(C(=O)CCc2cc3ccccc3[nH]c2=O)[C@@H](C)C1,-14,2.26
CO[C@H]1C[C@@H](O)C12CCN(C(=O)c1ncccc1O)CC2,-11,1.51
c1cnn(C2CN(Cc3cscn3)C2)c1,2,-0.32
C[C@H](O)c1nc2cc(-n3ccnc3-c3ccc(-c4cc[nH]n4)o3)ccc2n1C,1,-0.14
CC(=O)N1c2cc(S(=O)(=O)N3CCN(c4ccccc4Cl)CC3)c(Br)cc2C[C@@H]1C,-12,1.14
CNC(=O)C[C@H](C)N(C)C(=O)c1ccc(-c2ccc3c(c2)CCC3=O)cc1,-3,0.57
Cc1ccc(C)n1CC(=O)Nc1ccccc1-c1nnn(C)n1,9,-1.14
CN1CCN(c2cc(-n3ccnc3)ncn2)C[C@@H]1CO,-4,0.81
CC(CN(C)C(=O)NCC1Cc2ccccc21)c1nccs1 (stereo not drawn),-7,0.58
C[C@@H](CCc1ccccc1)NC(=O)C1CCN(S(=O)(=O)N2CCCC2)CC1,-7,1.06
CC(C)(C)OC(=O)NC[C@H]1C[C@H](NC(=O)c2ccc(O[C@H]3CC3(F)F)cc2)C1,-13,1.76
COCCc1noc(Cn2cnnc2)n1,3,-0.45
O=C1CCN(C(=O)c2ccoc2C2CC2)[C@H](C2CC2)C1,14,-1.79
CN1CCCN(C(=O)C[C@H]2COCCN2Cc2ccccc2F)CC1,-4,0.49
CCOC1(C)CCN(c2cncc(C#N)n2)CC1,1,-0.13
Cc1ccc(S(=O)(=O)N2CCC3(CC2)CCC(O)(CN2CCCC2)CC3)cc1,-4,0.42
Cc1cc(NC(=O)NCCc2c[nH]cn2)n(CC(C)C)n1,1,-0.21
COc1ccc(-c2nn(-c3ccccc3F)cc2CN2CCC[C@H]2C(N)=O)cc1,-11,1.26
COc1ccc(Cc2noc([C@@H]3COCCN3C(C)=O)n2)cc1OC,-12,1.35
O=C(O)c1ccc(CN2CCC[C@H]2Cn2cc(C3CC3)nn2)cc1Cl,1,-0.29

SMILES,% Inhibition [%],Z score
Cc1ncn(Cc2ccc(Cn3cnc(C)c3C)cc2)c1C,-4,0.65
CC1=C(C(=O)N2C[C@H]3CC=CC[C@H]3C2)C(C)NC(=O)N1 (stereo partly drawn),-13,2.39
Cn1cccc1CN[C@@H](CC(N)=O)C1CCCCC1,-13,1.36
CCOCCCNC(=O)c1c(C)noc1-c1ccncc1,-3,0.67
O=C(NCc1cccnc1)[C@H]1CCCN(c2nc3cccnc3s2)C1,-17,1.49
CC(C)(C)n1cc(NC(=O)[C@@H]2COCCN2C2CCCC2)cn1,-10,1.27
COCCn1c(C)cnc1CCNC(=O)COC,-1,0.1
Cc1ccsc1C(=O)N1CC[C@@]2(CCCN(CC3CC3)C2=O)C1,6,-1.22
CC(C)(C(=O)N1CCC(C)(C)S(=O)(=O)CC1)C1CCOCC1,-9,0.94
CCOCCCNC(=O)[C@H]1CCCN(c2nccnc2Oc2ccc(C)cc2)C1,-5,0.95
Cc1ccccc1C(=O)N1CC=C(C(=O)N2CCCC2)CC1,-5,0.87
Cc1ccc(CN2C(=O)OC(c3cccc(NC(=O)c4cccc(Cl)c4)c3)C2C(=O)NCc2ccco2)cc1 (stereo not drawn),-11,1.07
O=C(c1ccoc1Cl)N1CCCC1C1CCCC1O (stereo not drawn),-6,0.58
CN1C[C@@H]2CCC[C@H]1CN(C(=O)CCc1cn[nH]c1)C2,3,-0.46
Cc1cccc(NC(=O)N(Cc2ccncc2)C2CC2)c1C,-7,0.58
O=C(NC1CCCC1)C(c1ccccc1)c1ccccc1,-1,0.15
Cc1c(Cl)cccc1NC(=O)CCNC(=O)NCc1ccco1,2,-0.23
CC(C)=CCN1C[C@@H]2CC[C@H]1CN(C(=O)c1ccc(-c3ccccc3)[nH]c1=O)C2,-10,1.97
CCn1cc(-c2cc(C(F)(F)F)nc(N3CCCC3)n2)cn1,36,-0.9
COc1ccc(OCc2nc(C(=O)NCc3ccccc3C)co2)cc1,-7,1.36
Cc1cc(Cl)cc2c1NC(=O)C21NC(Cc2c[nH]c3ccccc23)C2C(=O)N(c3ccc(F)c(Cl)c3)C(=O)C21 (stereo not drawn),-5,0.97

SMILES,% Inhibition [%],Z score
C#CCCN1CCN(C(=O)[C@@H](C)CC(=O)c2ccccc2F)CC1,-10,1.45
COc1ccc(CC(=O)Nc2nnc(-c3cc4cccc(OC)c4o3)o2)cc1,-19,2.2
CCc1ccc(C(=O)N2CCCN(c3nc(CC(C)C)nc4onc(-c5ccc6ccccc6c5)c34)CC2)cc1,5,-0.99
O=C1CCC[C@@H]2CN(Cc3ccc4c(c3)CCO4)C[C@@H]2N1,33,-3.79
C[C@@H](C(=O)N(C)c1ccccc1Oc1ccccc1)n1cncn1,-5,0.69
CC(C)S(=O)(=O)CC(=O)N(C)c1ccc(Cl)cn1,3,-0.62
COc1ccnc(N[C@H]2CCc3ncnn3C2)n1,-6,1.06
CC(C)c1cccc(CN(C)CCc2ccncc2)n1,-14,1.46
CC(C)c1nc(CCNc2ncnc3c2CCNC3)no1,11,-1.38
Cc1ccc(OC[C@H]2CCC(=O)N2)nc1,4,-0.58
Cc1cnccc1CNC(=O)N[C@@H]1C=C[C@H](CO)C1,-36,4.28
CC(C)c1csc(C(=O)N[C@@H]2C[C@H]3C(=O)NCC(=O)N3C2)n1,-12,1.77
CCCC(=O)N1CCCN(c2nc(-c3cccc(OC)c3)no2)CC1,-9,1.14
CC(C)(C)CNc1ccc(C(N)=O)c(Cl)c1,4,-0.61
COc1ccc2c(c1)c(CN1CCC[C@H](OCc3noc(C)n3)C1)cn2C,-5,0.71
Cn1nc(NC(=O)c2ccccc2)c2c1CCN(C(=O)c1ccsc1)C2,-16,1.41
COc1ccc2c(c1)CCc1c(C(=O)N3CCC(Cc4nc(C5CCOCC5)no4)CC3)n[nH]c1-2,-2,0.28
Cn1c(COc2ccc(-c3ccccc3)cc2Cl)cc(=O)n(C)c1=O,-10,1.03
Cc1cc(C(=O)Cn2cc(C[C@H](O)c3ccccn3)nn2)c(C)n1-c1nccs1,-10,1.21
CS(=O)(=O)NC1CCCCC1CNC(=O)C1CC1(F)F (stereo not drawn),-1,0.2
c1ccc(-c2cc(-c3nnc4n3CCCCC4)[nH]n2)cc1,26,-2.96
